Reference: PubChem BioAssay AID493208 (National Center for Advancing Translational Sciences (NCATS), 2011)
Among all 44,000 compounds or so, about 340 (0.77%) were called active. Inconclusive results (about 5%) are left out. Calls follow the shape of the dose curve; as a rule, active = well fitted inhibition curve with a large enough effect; inconclusive = small, poorly fitted or top-dose-only effect; inactive = flat fitted curve, though single readings scatter. The list shows a part of the results.

Assay: Acumen qHTS Assay for Inhibitors of the mTORC1 Signaling Pathway in MEF (Tsc2-/-, p53-/-) Cells: Sytravon;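 also: plate controls were DMSO for no effect and rapamycin for full effect; nearly all actives have a fitted effect of over 50% in size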
Details: phospho-rpS6 immunofluorescence/PI, 24 h; series mostly up to 38.3 µM; activity change, negative = inhibition: at the top concentration
How it was run: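 Cell-based qHTS: Tsc2-/- p53-/- MEF, 24 h cpd, 37 °C; fix/perm, anti-phospho-S6 Alexa-488 + PI; Acumen 488 nm scan; pS6/PI ratio, % positive cells; rapamycin 7.5 nM = inhibition ref; PI count = viability.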

Activity change, negative = inhibition, inactive:
COc1cc(C(CC(=O)Nc2cc(C)ccc2C)N2Cc3ccccc3C2=O)cc(OC)c1OC (centres undefined) -10.7%
CC(C)(C)OC(=O)N1CCC(c2c(C(=O)N3CCN(c4ccccn4)CC3)cnn2-c2ccccc2Cl)CC1 -6.19%
CC(=O)c1ccc(NC(c2ccc(F)cc2)c2nnc(-c3ccccc3)o2)cc1 (centres undefined) -20.5%
Cc1ccc2nc(-c3ccncc3)c(Nc3ccc(C(C)C)cc3)n2c1 0.985%
CCOC(=O)c1[nH]c(C)c(CCC(=O)N2CCN(c3cccc(C)c3C)CC2)c1C 0%
CCOCCCNC(=O)c1cn(CC)c2ccc(S(=O)(=O)N3CCc4ccccc4C3)cc2c1=O 0.725%
Cc1ccc(CSc2nc(-c3ccc(C(C)(C)C)cc3)nc3cc(=O)[nH]n23)cc1 2.32%
CCc1ccc(Nc2sc(C(=O)c3ccccc3)c(N)c2S(C)(=O)=O)cc1 0.673%
CCOCCc1nn2c(=O)cc(COC(=O)CNC(=O)c3ccc(F)cc3)nc2s1 0.0824%
COc1ccc(-c2cn3c(n2)sc2cc(C(=O)Nc4ccc(F)cc4Cl)ccc23)cc1 -7.95%
COc1ccc(-n2ccn(CC(=O)Nc3ccc(C)c(C)c3)c(=O)c2=O)cc1OC 9.34%
CCOc1cc2[nH]c(=O)n(CCCC(=O)NCc3ccc(OC)cc3)c(=O)c2cc1OCC -0.483%
CC(C)CCNC(=O)c1nn(C)c2c1CSc1ccccc1-2 -1.75%
COC(=O)c1c(-c2cccs2)csc1NC(=O)c1cc(OC)c(OC)c(OC)c1 0%
CC1CCCN(S(=O)(=O)c2cc(C(=O)NCc3ccccc3Cl)n(C)c2)C1 (centres undefined) -9.52%
Cc1ccc(F)cc1NC(=O)CCSc1nc(-c2ccco2)cc(C(F)(F)F)n1 -21.4%
Cc1ccc(NC(=O)C(=O)NCC(c2cccnc2)N2CCc3ccccc3C2)cc1 (centres undefined) 3.57%
CCN(C(=O)c1cc2cc(Br)cc(OC)c2oc1=O)c1ccccc1 2.79%
COc1cccc(C2c3c(-c4ccccc4O)n[nH]c3C(=O)N2Cc2cccnc2)c1 (centres undefined) 1.52%
O=S(=O)(Nc1ccc(-c2ccc(N3CCCC3)nn2)cc1)c1ccc(OC(F)(F)F)cc1 0.582%
O=C(NC1CCCCCC1)c1ccc(CS(=O)c2ccc(Br)cc2)o1 (centres undefined) -7.85%
CCc1ccccc1NC(=O)Cn1c(=O)n(-c2ccc(C)c(C)c2)c(=O)c2oc3ccccc3c21 -3.92%
Cc1ccc(NC(=O)CSCc2cnn(-c3ccccc3)c2-n2cccc2)c(Cl)c1 -0.0334%
COc1ccc(CCNc2nc3ccccc3c3nc(-c4cccc(C)c4)nn23)cc1OC 1.35%
COc1ccc(S(=O)(=O)NCCc2sc(-c3cccc(C)c3)nc2C)cc1 -7.63%
Cc1ccc(CCNC(=O)c2cccc(Nc3nc4ccccc4nc3-n3nc(C)cc3C)c2)cc1 0.385%
CCc1ccc(-n2nc(C)c3c(C(=O)N4CCN(c5cccc(Cl)c5)CC4)cc(C)nc32)cc1 -16.3%
CCOC(=O)c1ccc(NC(=O)CCc2c(C)nc3c(c(C)nn3C(C)(C)C)c2C)cc1 -5.79%
Cc1nn(CC(=O)N2CCN(c3cccc(Cl)c3)CC2)c(=O)c2c1sc1ccccc12 -3.53%
COc1cc(OC)c(NC(=O)NCc2cccn2Cc2ccccc2)cc1Cl -25%
CCOc1cc(C(=O)OCc2cc(=O)n3nc(C4CC4)sc3n2)cc(OCC)c1OCC 1.18%
Cc1ccc(S(=O)(=O)NCCc2nnc3ccc(SCC(=O)Nc4ccc(OC(F)(F)F)cc4)nn23)cc1 -1.88%
O=C1COc2cc(S(=O)(=O)CCC(=O)N3CCN(c4ccccc4)CC3)c(Cl)cc2N1 5.12%
CCOc1ccc(NC(=O)Cn2c(=O)c(CNc3ccccc3)cc3cc4c(cc32)OCCO4)cc1 -2.78%
CCCc1ccc(-c2ccc(C(=O)Oc3ccc(Br)cc3)cc2)nc1 1.03%
COC(=O)c1ccc(CSc2nc3c([nH]c4ccccc43)c(=O)n2-c2cc(C)cc(C)c2)o1 -8.59%
CCCCCn1c(CNC(=O)c2ccc(F)cc2)nc2ccccc21 -18.8%
CN(C(=O)Cn1ncc2c1-c1ccccc1OC2)c1ccc(Br)cc1 3.43%
O=C(Nc1ccc2c(c1)OCO2)c1cc(-c2ccc(Cl)cc2)on1 -3.53%
COc1ccccc1OCC(=O)Nc1c(C(=O)c2ccc(C)cc2)oc2ccccc12 14.7%
CCOC(=O)c1c(C)[nH]c(C)c1S(=O)(=O)N1CCC(C(=O)NCc2ccc(N(C)C)cc2)CC1 -4.01%
COc1ccc(OC)c(CCNC(=O)C(C)n2c(C)c3cnn(-c4ccccc4)c(=O)c3c2C)c1 (centres undefined) 4.29%
COc1ccccc1CNS(=O)(=O)c1ccc(N2CCCCS2(=O)=O)cc1 0%
COc1ccc(Cl)cc1C(=O)Nc1c2c(nn1-c1ccc(Cl)cc1)CS(=O)(=O)C2 5.54%
CCOc1ccc(CNC(=O)C2=Cc3cc(Br)ccc3OC2)cc1OC -18.6%
COc1ccccc1NC(=O)c1oc2ccccc2c1NC(=O)COc1ccccc1OC -14.1%
COc1ccc(Cl)cc1NC(=O)CSc1nc(=O)[nH]c2c1CCCC2 -0.0304%
CCOc1ccc(NC(=O)Cn2cc(C(=O)c3ccccc3)c(=O)c3cc4c(cc32)OCO4)cc1 -2.1%
COc1cc(Cl)c(NC(=O)CN(C)S(=O)(=O)c2ccc3c(c2)CCCC(=O)N3)c(OC)c1 -1.7%
Cc1ccc2oc(-c3ccc(NC(=O)c4cccc(F)c4)c(C)c3)nc2c1 -4.96%
COc1ccc(NC(=O)c2cc(C)nc3c2c(C)nn3-c2cccc(Cl)c2C)c(OC)c1 0.346%
CC(=O)N1c2c(cc(Br)cc2S(=O)(=O)NCc2ccccc2Cl)CC1C (centres undefined) -13.7%
COc1cc(NC(=O)N2CCC(CN3CCc4ccccc4C3)CC2)cc(OC)c1 -1.73%
Cc1ccc(-c2nnc(Nc3cccc(O)c3)c3ccccc23)cc1S(=O)(=O)N1CCCCC1 11.6%
CCOc1ccc(OCC)c(NC(=O)c2csc3c2CCCC3)c1 -4.38%
O=C(O)c1ccc2c(c1)N(Cc1ccc(F)cc1Cl)C(=O)c1ccccc1S2 6.34%
COc1ccc(CCNC(=O)c2cc(S(=O)(=O)N3CCCC(C)C3)cn2C)cc1OC (centres undefined) 5.99%
COc1ccc(NC(=O)CCS(=O)(=O)c2nc(-c3ccc4c(c3)OCO4)cc(C(F)(F)F)n2)c(OC)c1 1.5%
CC(C)N(Cc1ccccc1)C(=O)CN1C(=O)COc2ccc(S(=O)(=O)N3CCCCCC3)cc21 -20.6%
CCN(C(=O)c1cnc(N2CCOCC2)c2ccccc12)c1cc(C)ccc1C -1.47%
CC(CNC(=O)CCCn1c(=O)c2cccn2c2ccccc21)c1ccccc1 (centres undefined) -8.76%
CCOc1ccccc1NC(=O)c1ccc2c(Cl)c3c(nc2c1)CCCC3 -8.64%
CC(=O)Nc1ccc(NC(=O)CCC(=O)c2ccc(C)cc2)cc1 0.272%
O=C(OCc1cc(=O)n2nc(-c3cccs3)sc2n1)c1ccccc1Br -10.6%
Cc1cc(NC(=O)C(C)(C)Oc2ccc(Cl)cc2)cc(-c2nc3ncccc3o2)c1O -0.307%
CCCn1c2ccccc2c2cnn(CC(=O)Nc3ccc(C)cc3Br)c(=O)c21 -3.33%
Cc1cc2ccccc2n2c(SCC(=O)Nc3cccc(C(F)(F)F)c3)nnc12 -10.1%
CCOC(=O)c1ccc(NC(=O)CSc2nccn2Cc2ccc(OC)cc2)cc1 -3.02%
Cc1cc(C)cc(C(=O)Nc2nnc3n2CCS3)c1 -0.445%
CC(=O)c1cccc(NC(=O)c2c(C)nn(-c3ccc(F)cc3)c2-n2cccc2)c1 -6.65%
CCCCCN1C(C(=O)c2ccccc2)=C(NC(C)=O)c2ccccc2S1(=O)=O -14.2%
O=C(CSc1ncc2c(n1)-c1cc(Cl)ccc1N(Cc1ccccc1F)S2(=O)=O)Nc1cccc(C(F)(F)F)c1 -9.65%
COC(=O)c1cc(NC(=O)c2ccc3c(c2)N(Cc2cccc(Cl)c2)C(=O)c2ccccc2S3=O)cc(C(=O)OC)c1 (centres undefined) 3.21%
COc1ccc(OCc2nc3c4c(-c5ccc(OC)cc5)c(-c5ccc(OC)cc5)oc4ncn3n2)cc1 9%
CNc1oc(-c2ccc(COc3ccc(C)cc3)o2)nc1C#N -1.04%
Cc1cccc(CNC(=O)c2sc3ncnc(N(C)C4CCCCC4)c3c2C)c1 -6.86%
CCN(CC)c1nc(-c2ccccc2Cl)c2cc(Br)ccc2n1 -8.67%
O=C(C1CC1)N1CCN(c2nc3c(F)cc(F)cc3s2)CC1 -5.43%
Cc1nn(-c2ccccc2)c2nc(C3CC3)cc(C(=O)NCc3ccccc3Cl)c12 -1.3%
CCc1ccc(NC(=O)c2sc3nc(C)c(Cl)c(C)c3c2NC(=O)c2ccccc2)cc1 3.76%
Cc1cc(Cl)ccc1OCC(=O)N(Cc1ccc(N(C)C)cc1)CC1CCCO1 (centres undefined) -6.36%
CC(C)Nc1ccc(-c2nc(-c3ccccn3)no2)cc1[N+](=O)[O-] 1.34%
O=S(=O)(c1ccc(-c2cnc(C3CC3)o2)cc1)N1CCN(c2cccc(Cl)c2)CC1 7.48%
CCOc1ccccc1C(=O)Nc1cc(-c2ccc(C)cc2)no1 3.96%
Cc1cccc(S(=O)Cc2ccc(C(=O)NC3CCCCCC3)o2)c1 (centres undefined) 0.316%
Cc1ccc(C(=O)Nc2ccc(C(=O)OCc3cc(=O)n4c5c(sc4n3)CCCC5)cc2)cc1 0%
Cc1c(-c2ccccc2)n(-c2ccccc2O)c2nc3c(c(=O)n(C)c(=O)n3C)n12 -1.29%
O=C(c1ccc2c(c1)N(Cc1ccccc1)C(=O)c1ccccc1S2=O)N1CCC(Cc2ccccc2)CC1 (centres undefined) -18.8%
Cc1ccc2c(c1)c(=O)c(S(=O)(=O)c1ccc(C)c(C)c1)cn2CC(=O)Nc1ccccc1 -4.47%
CCCOc1ccc(C2=NC(c3ccc(F)cc3)=Nc3ccc(OC)cc3N2)cc1 0.841%
CCc1cccc(C)c1NC(=O)C1=C(C)C(=O)OC12CCC(C)CC2 (centres undefined) -5%
COc1ccccc1Nc1ncc(C(=O)Nc2ccc(OC)c(OC)c2)c2ccccc12 -10.8%
COc1ccccc1CNC(=O)c1cnc2sc(N3CCOCC3)nn2c1=O 2.1%
COc1ccc(N2CCN(C(=O)Cn3nc(Cc4cccnc4)c4ccccc4c3=O)CC2)cc1 -11.4%
